Assay results taken from PubChem BioAssay AID2060504 (Molecular Pharmacology Branch, DTP, NCI, 2025).
For part of its entries the source gives two or more results. This is not the full list of results. There may be further records. Results that share an entry are repeated measurements in other runs, samples, wells, individuals or studies. Marks such as (2×) count equal records among those shown.

Tested on: 636577-100-R-J1-PDC complex spheroid viability
Test: Anticancer human tumor 636577-100-R-J1-PDC patient-derived endometrial adenocarcinoma cell line growth inhibition [GQUAD]
Conditions: for viability, T/C: stronger effect = lower value
Description: DNA G-quadruplex Stabilizer Agents in Combinations in Complex Spheroids
A high-throughput screen of multi-cell type tumor spheroids was designed to identify active combinations of DNA G-quadruplex stabilizer agents and targeted small molecules. Complex spheroids include a stromal component modeled by human endothelial cells (HUVEC) and fibroblasts modeled by human mesenchymal stem cells (MSCs). The concentration ranges selected for each drug and investigational agent were based upon clinically achievable concentrations if the clinical Cmax of the agent was known.
Compounds. The drugs and investigational agents: pidnarulex (CX-5461; NSC782164), APTO-253 (NSC789042), BRACO-19 (NSC847499), peposertib (NSC802822), ceralasertib (NSC780249), elimusertib (NSC800525), camonsertib (NSC841442), AZD-1390 (NSC803789), olaparib (NSC753686), talazoparib (NSC767125), ART-558 (NSC835418), sotorasib (NSC818433), MRTX-1133 (NSC836407), SN-38 (NSC673596), topotecan (NSC609699), etoposide (NSC141540), doxorubicin (NSC123127), gemcitabine (NSC613327), 5-fluorouracil (NSC19893), paclitaxel (NSC125973), vemurafenib (NSC761431), panobinostat (NSC761190), R-306465 (JNJ-16241199; NSC773264), adavosertib (NSC754352), TP-3654 (NSC805149), carboplatin (NSC241240), KSQ-4279 (NSC840948), and staurosporine (NSC755774) were obtained from the National Cancer Institute (NCI) Developmental Therapeutics Program Chemical Repository (34). The FDA-approved anticancer drug set is available from the NCI Developmental Therapeutics Program. […] The stock solutions were prepared in dimethyl sulfoxide (DMSO, Sigma-Aldrich, St. Louis, MO, cat. D2650) at 800-fold the tested concentration and stored at -70 degrees C prior to their use. All drugs and investigational agents were tested over a range starting from a high concentration at or near the clinical Cmax and decreasing in half-log increments. If the clinical Cmax for an agent had not been determined, the highest concentration tested was 10 microM.
2.3 Cell Culture. All cells were maintained in an incubator at 37 degrees C and 5% CO2 with 95% humidity. The PDC lines were cultured according to standard operating procedures established by the NCI PDMR. All PDCs were thawed and cultured in Matrigel-coated flasks prepared with a working solution of 1X Ham's F-12 nutrient mix, without supplementation (Invitrogen, cat. 11765054), 100 U/mL penicillin-streptomycin (Invitrogen, cat. 15140122), and 2.5% Matrigel (Corning Inc., cat. 354248) for the first three passages. The 857933-349-R-J2-PDC line was cultured in 6C/Colon 1B media, which includes advanced DMEM/F-12 (Thermo Fisher Scientific, cat. 12634028), 10 mM HEPES (Thermo Fisher Scientific, cat. 15630080), 1X GlutaMAX supplement (Thermo Fisher Scientific, cat. 35050061), 0.1 mg/mL primocin (InvivoGen, cat. ant-pm-2), 10% defined fetal bovine serum, heat inactivated (HyClone Laboratories Inc., cat. SH30070.03HI), 50% L-WRN conditioned media (ATCC, cat. CRL-3276), 1.25 mM N-Acetyl-L-cysteine (Sigma-Aldrich, cat. A9165), 10 mM nicotinamide (Sigma-Aldrich, cat. N0636), 1X B-27 supplement (Thermo Fisher Scientific, cat. 17504044), 1X N-2 supplement (Thermo Fisher Scientific, cat. 17502048), 10 microM Y-27632 dihydrochloride (Tocris Bioscience, cat. 1254), and 50 ng/mL human EGF recombinant protein (Thermo Fisher Scientific, cat. PHG0311). The 485176-168-R4-J1-PDC line was cultured in Panc media, which includes all 6C/Colon 1B media components plus 100 ng/mL human FGF-10 (Thermo Fisher Scientific, cat. 100-26), 500 nM SB-431542 (Selleckchem, cat. S1067), and gastrin (Tocris, cat. 3006).
[…]
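Further: viability read after seven days of drug exposure.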
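Wherever viability, T/C is given: luminescence signal used as a proxy for viable cells; 100% = DMSO vehicle control wells.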

| SMILES | IC50 (compound alone, run of 03/18/2024) | viability, T/C (compound alone 0.0316 µM) | viability, T/C (compound alone 0.1 µM) | viability, T/C (compound alone 0.316 µM) | viability, T/C (compound alone 10 µM) |
| --- | --- | --- | --- | --- | --- |
| Cc1cnc(CNC(=O)c2c(=O)c3ccc(N4CCCN(C)CC4)nc3n3c2sc2ccccc23)cn1 | < 31.6 nM, 35 nM, 44.4 nM, 32.4 nM, 35.7 nM, 34.8 nM | – | – | – | – |
| Cc1[nH]c2ccc(F)cc2c1-c1nc2c3cccnc3c3ncccc3c2[nH]1 | – | 62.4, 88.1, 97.6, 79.7, 96.3, 111, 106, 91.5, 93.2% | 72.7, 92.6, 85.7, 78.2, 98, 119, 104, 103, 96.1% | 52.3, 69.2, 91.6, 107 (2×), 91.5, 116, 105, 97.6% | 58.6, 59.5, 50.7, 55.5, 48.7, 40, 30.4, 35.6, 38% |
| CN(C)c1ccc(Nc2c3ccc(NC(=O)CCN4CCCC4)cc3nc3cc(NC(=O)CCN4CCCC4)ccc23)cc1 | – | – | 113, 93.2, 84.5, 87.3, 97.7, 103 (2×), 99.2, 101, 97.6, 90.5, 96.9% | 88.2, 80.3, 92.3, 97.1, 92.1, 90.9, 106, 89.7, 101, 89.5, 100, 88.8% | – |
